In US20220290101A1:

Target: L1 (DV1-GV4) soluble heterodimeric γδ TCR antigen, leucine zipper (LZ) format (human)
Assay: DELFIA affinity ranking with 100 nM biotinylated L1

Chain of L1 (DV1-GV4) soluble heterodimeric γδ TCR antigen, leucine zipper (LZ) format (human) (main, as listed by the source): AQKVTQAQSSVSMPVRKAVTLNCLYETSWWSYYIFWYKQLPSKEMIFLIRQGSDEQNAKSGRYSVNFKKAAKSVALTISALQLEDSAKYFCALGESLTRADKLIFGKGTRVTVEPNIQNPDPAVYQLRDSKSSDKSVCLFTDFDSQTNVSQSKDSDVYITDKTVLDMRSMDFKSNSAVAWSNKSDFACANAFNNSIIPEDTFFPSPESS

B1: 1245_P01_G06 (scFv) (scFv)
scFv: QVQLVESGGGLVKPGGSLRLSCAASGFTFSDYYMSWIRQAPGKGLEWVSYISSSGSTIYYADSVKGRFTISRDNAKNSLYLQMNSLRAEDTAVYYCARHSWNDAFDVWGQGTLVTVSSGGGGSGGGGSGGGAS[about 100 residues omitted]
100 nM L1 (DELFIA signal) (fluorescence units): 22500
